Values joined by “and” are separate entries in the source; they are usually repeats but may differ in a detail not shown here. Identical values can stand only once. The campaign covered roughly 340,000 compounds. About 12,000 (3.5%) were called active. The shares of active, inactive and inconclusive entries below differ from those in the screen. The call rests on the fitted dose curve; in most records, active means well fitted inhibition curve with a large enough effect; inconclusive means small, poorly fitted or top-dose-only effect, or another doubt; inactive means no such curve, though single readings can be large or run the other way. A potency beside an inconclusive call is a rough fit, not a confirmed value.
Assay: qHTS Assay for Inhibitors of Hepatitis C Virus (HCV)
Settings: Huh7.5.1 HCVcc-Cre (HCVcc is cell-culture hepatitis C virus) infection, luciferase reporter, 44 h; activity change, negative = inhibition: at 41.8 µM (top of the series) unless noted
Procedure, shortened: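 After 44 h co-culture of compound, cells and HCVcc-Cre (~0.5 moi), substrate is added for 15 min at room temperature and luciferase measured over 15 sec. Cells were seeded at 1,000/well and pre-cultured 4 h.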
For `CCOc1ccc(NC(=O)CN(C)C(=O)CCSc2ccc(F)cc2)cc1OCC`, the Potency was inconclusive: 20 µM [inhibitor, partial curve, poor fit]. In the case of `O=C(NCCc1c[nH]c2ccccc12)C(=O)NCC(c1cccnc1)N1CCN(c2ccccc2)CC1` (stereo not given), the Potency is reported as active: 10 µM. For `CCOC(=O)Nc1ccc2c(COC(=O)c3ccccc3O)cc(=O)oc2c1`, the Potency was inconclusive: 8.91 µM [inhibitor, partial curve]. With `Cc1cc(C)cc(OCc2nnc(SCC(=O)N3CCN(c4ccccc4)CC3)o2)c1` the Potency was inconclusive: 2.51 µM [inhibitor, partial curve]. In the case of `CCOC(=O)C1=C(Cn2cnc3ccccc32)NC(=O)NC1c1cc(C)ccc1C` (stereo not given), the Potency is reported as inconclusive: 20 µM [inhibitor, single point]. With `Cc1c(CC(=O)NCCCC(=O)O)c(=O)oc2cc3oc4c(c3cc12)CCCC4` the “activity change, negative = inhibition” value was inactive: 9.93%. In the case of `CN(Cc1c(C(=O)N2CCc3ccccc3C2)nc2ccc(Cl)cn12)C(C1CC1)C1CC1`, the “activity change, negative = inhibition” value is reported as inactive: -14.4%. With `Cc1cccc(N=C2c3cc([N+](=O)[O-])ccc3-c3c2cc([N+](=O)[O-])cc3[N+](=O)[O-])c1` the Potency was active: 7.08 µM. For `OCC1(Cc2cccc(Cl)c2)CCCN(Cc2cnn(-c3ccccc3)c2)C1` (stereo not given), the Potency was inconclusive: 31.6 µM [inhibitor, single point]. For `COc1cc(/C=N/N(C)c2ccccc2)ccc1O`, the Potency was inconclusive: 5.01 µM [inhibitor, single point]. In the case of `CCC(CC)C(=O)NCCc1cc2ccc(OC)cc2[nH]c1=O`, the Potency is reported as inconclusive: 5.62 µM [inhibitor, single point]. For `C/C(=N\Nc1ccc(Cl)nn1)c1ccccc1O`, the Potency was active: 0.501 µM. For `N#CC(C#N)=C1C=CC=CN1/C(=C\c1ccccc1Cl)C(=O)c1ccccc1`, the Potency was inconclusive: 31.6 µM [inhibitor, single point]. In the case of `CCN(CC)CCNC(=O)c1ccc2c(c1)NC(=O)c1ccccc1S2`, the Potency is reported as inconclusive: 25.1 µM [inhibitor, partial curve]. With `Cc1cc([N+](=O)[O-])ccc1NC(=O)CN1C2CCC1CC(NC(=O)NC13CC4CC(CC(C4)C1)C3)C2` (stereo not given) the Potency was active: 2.51 µM. With `O=C(Nc1cc(S(=O)(=O)N2CCOCC2)ccc1OCC(F)(F)F)C1=COCCO1` the Potency was inconclusive: 22.4 µM [inhibitor, single point]. For `COc1ccc(CN(C)C(=O)c2ccc(OCC(=O)Nc3cccc(C(F)(F)F)c3)c(OC)c2)c(OC)c1`, the Potency was active: 0.562 µM. With `CCOC(=O)c1sc2ncnc(NCC(c3cccs3)N(C)C)c2c1C` (stereo not given) the Potency was active: 10 µM. In the case of `CCn1c2ccccc2c2cc(CC(N)=O)ccc21`, the Potency is reported as inconclusive: 22.4 µM [inhibitor, single point]. In the case of `Cc1cc(Nc2ccc(Cl)cc2)nc(-c2ccccc2O)n1`, the Potency is reported as active: 11.2 µM. For `COC(=O)c1ccc(/C=C/C(=O)OCC(=O)NCc2cccs2)cc1`, the “activity change, negative = inhibition” value was inactive: 31.3%. For `O=C(c1cccc(C(F)(F)F)c1)C1CCCN(Cc2cccn2-c2ncccn2)C1` (stereo not given), the Potency was inconclusive: 31.6 µM [inhibitor, single point]. In the case of `CCOC(=O)c1cc(NC(=O)CCC(=O)O)ccc1N1CCCCC1`, the “activity change, negative = inhibition” value is reported as inactive: 26.2%. In the case of `Cc1ccccc1/C=C/c1cc[n+](C)cc1`, the Potency is reported as inconclusive: 8.91 µM [inhibitor, partial curve]. For `CCCCc1ccc(NC(=O)c2ccc(N(C)S(C)(=O)=O)cc2)cc1`, the Potency was inconclusive: 2.82 µM [inhibitor, partial curve]. With `O=C(Nc1cc(S(=O)(=O)N2CCOCC2)ccc1N1CCCCC1)c1ccc(Cl)cc1` the Potency was inconclusive: 22.4 µM [inhibitor, single point]. With `COc1cc(C(=O)Nc2nc3ccc(S(C)(=O)=O)cc3s2)cc(OC)c1C` the Potency was active: 3.55 µM. For `CCn1c(/C=C/c2ccccc2)nc2ccccc2c1=O`, the Potency was inconclusive: 31.6 µM [inhibitor, single point]. With `CCCCC(=O)NC(c1ccccc1Cl)c1c(O)ccc2ccccc12` (stereo not given) the “activity change, negative = inhibition” value was inactive: -4.07%. For `O=C(NC(=S)Nc1ccc2[nH]ncc2c1)c1ccccc1`, the Potency was inconclusive: 20 µM [inhibitor, single point]. With `CCN(CC(=O)Nc1cccc(C#N)c1)CC(=O)Nc1cccc(OC)c1` the Potency was inconclusive: 6.31 µM [inhibitor, full curve, poor fit]. With `COCCCNc1oc(-c2cccs2)nc1S(=O)(=O)c1ccc(C)cc1` the “activity change, negative = inhibition” value was inactive: -11.2%. In the case of `COc1cc(NC(=O)c2c(F)c(F)c(F)c(F)c2F)c(OC)cc1Cl`, the Potency is reported as active: 11.2 µM. With `O=C(CC(=O)c1cc(Cl)ccc1O)c1ccccc1` the Potency was inconclusive: 31.6 µM [inhibitor, partial curve, poor fit]. With `CC(C)C(OC(=O)C1=Cc2ccccc2OC1)C(=O)NCC1CCCO1` (stereo not given) the “activity change, negative = inhibition” value was inactive: -17.2%. In the case of `O=[N+]([O-])c1ccc(CSc2ccc(S(=O)(=O)N3CCOCC3)cn2)cc1`, the Potency is reported as inconclusive: 12.6 µM [inhibitor, partial curve]. With `O=S(=O)(c1cccs1)N1CN(Cc2ccc(F)cc2)c2nc3ccccc3nc21` the “activity change, negative = inhibition” value was inactive: -3.83%. In the case of `COc1cc(CN2C(=O)NC(=O)C3(Cc4cc(C)ccc4N(C)C3)C2=O)cc(OC)c1` (stereo not given), the Potency is reported as inconclusive: 17.8 µM [inhibitor, partial curve]. For `CCCCCc1ccc(OCCOCCn2c[n+](C)c3ccccc32)c(CCCCC)c1`, the Potency was active: 10 µM. In the case of `O=C(C=Cc1ccccc1)c1c[nH]c2ccccc2c1=O`, the Potency is reported as active: 11.2 µM. For `C=CCSc1nc2c(c(=N)n1CC=C)C1CCCC1S2` (stereo not given), the Potency was inconclusive: 0.447 µM [inhibitor, full curve, poor fit]. In the case of `CCOc1cc(C(=S)N2CCCC2)ccc1OCc1ccccc1`, the “activity change, negative = inhibition” value is reported as inactive: -12.1%. For `N#Cc1nc(-c2cccc3ccccc23)oc1NCCN1CCOCC1`, the Potency was inconclusive: 10 µM [inhibitor, partial curve]. In the case of `O=C(NC(NC(=S)Nc1c(Cl)cc(Cl)cc1Cl)C(Cl)(Cl)Cl)OCc1ccccc1` (stereo not given), the Potency is reported as inconclusive: 31.6 µM [inhibitor, single point]. In the case of `CCOC(=O)C1=C(C)N=C2SCCC(=O)N2C1c1ccc(C(=O)OC)cc1` (stereo not given), the “activity change, negative = inhibition” value is reported as inactive: -12.9%. For `CC1(C)CC2CC(C)(CN2C(=O)COc2cccc3ccccc23)C1` (stereo not given), the Potency was inconclusive: 8.91 µM [inhibitor, partial curve, poor fit]. For `CCO[C@H]1OC(C(=O)N2CCCCCCC2)=C[C@@H](c2ccc(C(F)(F)F)cc2)[C@@H]1CCCO`, the Potency was inconclusive: 5.62 µM [inhibitor, single point]. In the case of `CC(NC(=S)Nc1ccc(OC(F)F)cc1)c1ccc(F)cc1` (stereo not given), the Potency is reported as inconclusive: 22.4 µM [inhibitor, single point]. In the case of `COc1cc(OC)c(N(C)C(=O)CCNC(=O)Cn2cnc3ccccc3c2=O)cc1Cl`, the Potency is reported as inconclusive: 11.2 µM [inhibitor, single point] and inconclusive: 10 µM [inhibitor, partial curve]. In the case of `Oc1ccc(Cl)cc1C1=NNC(c2ccc(Cl)cc2)C1` (stereo not given), the Potency is reported as inconclusive: 3.16 µM [inhibitor, partial curve]. With `COc1cccc(NC(=O)NCc2ccccc2F)c1` the Potency was inconclusive: 10 µM [inhibitor, partial curve]. With `O=C(NCCCc1nc2ccccc2[nH]1)c1ccc(F)cc1` the “activity change, negative = inhibition” value was inactive: 16%. In the case of `COc1ccc(Cc2nnc(Nc3ccccc3)s2)cc1Br`, the Potency is reported as inconclusive: 31.6 µM [inhibitor, single point]. For `COc1ccc(/C=C/c2cc(-c3ccc(C)cc3)o[n+]2C)cc1`, the Potency was inconclusive: 15.8 µM [inhibitor, partial curve]. With `CCOC(=O)c1ccc(-n2c(C)nc3c(cnn3-c3ccc(Cl)cc3)c2=O)cc1` the Potency was inconclusive: 2.51 µM [inhibitor, single point]. With `C=CCOc1ccc(/C=C/C(C)=N\O)cc1` the “activity change, negative = inhibition” value was inactive: -9.14%. With `O=c1c2c3c(sc2n(CCN2CCCCC2)c(=O)n1Cc1ccco1)CCCCC3` the Potency was inconclusive: 25.1 µM [inhibitor, single point]. For `O=C(Cc1ccccc1)N/N=C/c1ccc(Cl)cc1Cl`, the Potency was inconclusive: 25.1 µM [inhibitor, single point]. In the case of `CCOC(=O)/C(C#N)=C/c1c(N2CCN(Cc3ccc4c(c3)OCO4)CC2)nc2c(C)cccn2c1=O`, the Potency is reported as inconclusive: 31.6 µM [inhibitor, single point]. With `C[C@H](O)[C@@H]1C(=O)N2CCc3ccc(N4CCOCC4)cc3[C@@H]2C[C@@H]1N(C)S(=O)(=O)c1ccccc1` the Potency was inconclusive: 5.01 µM [inhibitor, single point]. In the case of `Fc1ccc(CNc2nc(-c3cccnc3)nc3ccccc23)cc1`, the Potency is reported as active: 11.2 µM. In the case of `c1ccc(Cc2nnc3sc(-c4cccs4)nn23)cc1`, the “activity change, negative = inhibition” value is reported as inactive: -27.6%. With `Cc1[nH]c2ccc(C(=O)OC(C)C(=O)N(C)c3ccccc3)cc2c1C` (stereo not given) the Potency was inconclusive: 31.6 µM [inhibitor, single point]. With `N#Cc1nc(-c2ccc(OCc3ccccc3)cc2)oc1N1CCC(C(N)=O)CC1` the Potency was inconclusive: 10 µM [inhibitor, partial curve]. In the case of `S=C1SCN(Cc2ccccc2)CN1Cc1ccccc1`, the “activity change, negative = inhibition” value is reported as inactive: -2.35%. With `Cc1cccc(NC(=O)c2ccc(-n3cccn3)c([N+](=O)[O-])c2)c1` the Potency was inconclusive: 11.2 µM [inhibitor, single point]. With `Cc1ccccc1C(=O)NC1CCN(Cc2nnnn2CCc2ccccc2)CC1` the “activity change, negative = inhibition” value was inactive: 20.3%. For `O=C1/C(=C/c2ccc([N+](=O)[O-])cc2)C=C(c2ccccc2)N1c1ccc(O)cc1`, the Potency was inconclusive: 15.8 µM [inhibitor, single point]. For `Cc1cnc(C(=O)Nc2cc(F)ccc2C)cn1`, the “activity change, negative = inhibition” value was inactive: 1.86%. With `O=C(CN1C(=O)c2cccc3cccc1c23)Nc1ccccc1` the Potency was inconclusive: 31.6 µM [inhibitor, single point].
On the % scale 0 is the no-effect control and ±100 the full control effect; potency means the concentration at half of the fitted maximal effect; tags describe the fitted curve by direction and shape.
